Experimental data published in PubChem BioAssay AID493208 (National Center for Advancing Translational Sciences (NCATS), 2011).
Among all 44,000 compounds or so, about 340 (0.77%) were called active. Not shown: some 5% with an inconclusive outcome. Calls come from the whole dose curve; as a rule, active = well fitted inhibition curve with a large enough effect; inconclusive = small, poorly fitted or top-dose-only effect; inactive = flat fitted curve, though single readings scatter. Some of the results follow.

Assay: Acumen qHTS Assay for Inhibitors of the mTORC1 Signaling Pathway in MEF (Tsc2-/-, p53-/-) Cells: Sytravon;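 note: plate controls were DMSO for no effect and rapamycin for full effect; nearly all actives have a fitted effect of over 50% in size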
Conditions: phospho-rpS6 immunofluorescence/PI, 24 h; series mostly up to 38.3 µM; activity change, negative = inhibition: at the top concentration
Outline: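 Cell-based qHTS: Tsc2-/- p53-/- MEF, 24 h cpd, 37 °C; fix/perm, anti-phospho-S6 Alexa-488 + PI; Acumen 488 nm scan; pS6/PI ratio, % positive cells; rapamycin 7.5 nM = inhibition ref; PI count = viability.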

Activity change, negative = inhibition, inactive:
Cc1cccc(Nc2nc(-c3ccccc3)nc3ccccc23)c1 7.17%
Cc1cccc(OC(=O)CSc2nnc(-c3cccs3)o2)c1C 2.42%
CSc1ncc(Cl)c(C(=O)Nc2c(C(=O)c3ccc(Cl)cc3)oc3ccccc23)n1 -11%
Cc1ccc(-n2ncc(C(=O)N3CCN(c4ccccc4F)CC3)c2C2CCN(C(=O)OC(C)(C)C)CC2)cc1C 3.89%
CCOC(=O)c1c(S(=O)(=O)N2CCCC(C(=O)Nc3cccc(CC)c3)C2)c(C)n(CC)c1C (stereo unspecified) -28.7%
Cc1c(NC(=O)Cc2ccc(Cl)cc2)cccc1-c1nc2cccnc2s1 4.86%
CCOC(=O)c1c(C)[nH]c(C)c1S(=O)(=O)NCC(=O)Nc1cccc(Cl)c1 -1.81%
Cc1c(CNC2CCCCCC2)c(C(=O)O)c(C)n1Cc1cccc(Cl)c1 -1.56%
Cc1cccc(CNC(=O)Cn2nc(C)c3nn(-c4ccc(Cl)cc4)c(C)c3c2=O)c1 -0.573%
O=C(CSc1nc(Nc2ccccc2)c2ccccc2n1)c1ccc(Cl)cc1 -0.364%
Cc1ccccc1Nc1c(-c2c[nH]c3ccccc23)nc2ccc(Cl)cn12 -4.48%
Cc1cc(C)cc(NC(=O)NCc2c(-n3cccc3)sc3c2CCCC3)c1 0.0685%
COC(=O)c1scc(-c2ccc(C)cc2)c1S(=O)(=O)Nc1cc(C)c(Cl)cc1OC 0%
Clc1cccc(CNCCCSc2nnnn2-c2ccccc2)c1 -12.1%
Cc1cccc(N2CCN(C(=O)CCS(=O)(=O)c3ccc4c(c3)CC(=O)N4C)CC2C)c1 (stereo unspecified) 9.96%
Cc1cccc(C(c2sc3nc(-c4ccco4)nn3c2O)N2CCOCC2)c1 (stereo unspecified) -1.25%
CCCCOC(=O)c1ccc(NC(=O)c2ccc3c(c2)CCN3S(C)(=O)=O)cc1 -3.63%
CC(=O)N1CCN(c2csc3ccc(Cl)cc3c2=O)CC1 -16.6%
Cc1ccc(NS(=O)(=O)c2ccc3c(c2)n(C)c(=O)n3C)c(C)c1 -3.22%
O=C(NCCc1cccs1)c1ccc(Cn2c(SCc3cccc(F)c3)nc3cccnc32)cc1 -0.79%
Fc1cccc(CN2CCc3nc(Nc4ccc5c(c4)OCCO5)ncc3C2)c1F 18.6%
Cc1ccccc1S(=O)Cc1ccc(C(=O)NCc2ccccc2Cl)o1 (stereo unspecified) -0.0503%
Cc1ccc(CSC2=NC(C)(C)Nc3ccccc32)c(C)c1 -1.12%
COc1ccc(-c2csc3ncnc(Nc4ccccc4)c23)cc1 0%
CCOc1ccccc1NC(=O)Cn1c(=O)oc2ccccc21 -1.42%
COc1ccc(-c2noc(N3CCC(C(=O)N4CCN(c5cccc(OC)c5)CC4)CC3)n2)cc1 -10.8%
CCOC(=O)c1c(-c2ccccc2)oc2ccc(OCc3ccccc3Br)cc12 8.2%
COc1ccc(NC(=O)Cn2cc(C(=O)c3ccc(C)c(C)c3)c(=O)c3cc(OC)ccc32)cc1 -2.17%
COc1cc(C2C=C(C(=O)O)Nc3ncnn32)ccc1O (stereo unspecified) -3.29%
CCOc1ccc2c(c1)c(=O)c(C(=O)c1ccc(CC)cc1)cn2CC(=O)Nc1ccc2c(c1)OCCO2 2.96%
COc1cccc(NC(=O)Cn2c(=O)n(CCC(=O)NCc3ccccc3OC)c(=O)c3ccccc32)c1 -10.4%
COc1ccc(Cl)cc1NC(=O)Cn1c(=O)n2nc(-c3ccccc3)nc2c2ccccc21 -11.2%
COc1ccc(C)c2sc(N(Cc3cccnc3)C(=O)c3cccs3)nc12 3.08%
Cc1ccc(NC(=O)Cn2cc3c(n2)CCCC3)cc1Cl 1.12%
CCN1CCc2c(sc(-n3cccc3)c2C(C)NC(=O)Nc2ccc(C(=O)OC)cc2)C1 (stereo unspecified) -9.81%
COc1ccc(CNS(=O)(=O)c2ccc(-c3cc(C(F)(F)F)on3)s2)cc1OC -10.4%
COc1ccc(CNC(=O)c2nn(C)c3c2CSc2ccccc2-3)cc1 -2.81%
O=C(Nc1cccc(F)c1)c1cnc2sc(N3CCCC3)nn2c1=O 5.01%
COc1ccc(-c2csc(-c3c(N)c(C(=O)c4ccc(OC)c(OC)c4)n4ccccc34)n2)cc1 1.35%
COc1ccc(N(C)S(=O)(=O)c2ccc3c(c2)CCN3C(=O)CCC(=O)O)cc1 1.68%
Cc1ccc(NC(=O)Cn2c(=O)n(Cc3ccccc3)c(=O)c3c(C)c(C(=O)N(C)C)sc32)c(C)c1 -0.623%
COc1ccc(NC(=O)c2ccco2)cc1NC(=O)c1ccccc1[N+](=O)[O-] -10.2%
CCc1cccc(C)c1Nc1nn2c(=O)c3ccccc3nc2s1 0.632%
COc1cc(-c2cc(OC)c3c(C)oc(C)c3c(=O)c2)ccc1OC(=O)c1cccc(C)c1 0.0686%
Cc1nn(S(=O)(=O)c2ccc(F)cc2)c(C)c1S(=O)(=O)N1CCCCCC1 2.36%
Cc1ccc(CNC(=O)c2ccc3c(c2)c(C)c(C)n3Cc2ccc(Cl)cc2)o1 -3.41%
CCCc1cc(=O)[nH]c(SCc2nc(-c3ccc(OCC)cc3)no2)n1 4.63%
Cc1ccc(-c2noc(-c3ccc(N4CCCC4)c([N+](=O)[O-])c3)n2)cc1 0%
Cc1ccc(C(=O)Nc2c(C(=O)Nc3ccc(C)c(C)c3)sc3nc(C)cc(C)c23)cc1 -1.12%
Cc1ccc(C2C=C(c3ccccc3)Nc3nc(NS(C)(=O)=O)nn32)cc1 (stereo unspecified) 2.69%
Cc1c(-c2ccccc2)c(=O)oc2c(CN3CCOCC3)c(O)ccc12 3.03%
COc1ccc(NC(=O)C2CCN(c3cc(C)nc4c(-c5ccc(Cl)cc5)c(C)nn34)CC2)cc1 -7.06%
CCOc1ccc(C2C(C(=O)Nc3ccc(OC)cc3)=C(C)Nc3nc(CCCO)nn32)cc1 (stereo unspecified) -12.4%
CCc1cccc(C)c1NC(=O)CSc1nc2ccncc2[nH]1 -0.4%
COc1cccc(NS(=O)(=O)c2ccc3[nH]cc(C(=O)NC(C)c4ccccc4)c(=O)c3c2)c1 (stereo unspecified) -12.7%
CCOC(=O)C1CCN(Cc2cn3c(-c4ccc(OC)cc4)nnc3s2)CC1 0.128%
Cc1cccc(NC(=O)c2cn(-c3ccccc3)nc2-c2ccccc2)c1C 1.69%
Cc1ccccc1CN1CCCN(CC(=O)Nc2ccc(F)cc2)S1(=O)=O 3.68%
Cc1ccc(NC(=O)Cn2c(=O)n(Cc3ccc4c(c3)OCO4)c(=O)c3oc4ccccc4c32)cc1C -3.2%
Cc1ccc(OCCCCn2c(-c3ccc(Cl)cc3)nc3ccccc3c2=O)cc1 -9.48%
Cc1ccc(/C=C/C(=O)Nc2ccc3nc(N4CCC(C)CC4)cc(C)c3c2)cc1 -5.62%
